From PubChem BioAssay AID463173 (ICCB-Longwood Screening Facility, Harvard Medical School, 2010)
In all, about 52,000 compounds went through this assay and about 1,700 (3.3%) were called active. Cut-off read from the data, not from the text of the source: active = survival mostly below about 52% (no sharp cut-off); inactive = mostly above about 56%. The list shows a part of the results.

What follows are compounds tested on Wild type (assay: S. aureus survival, RN4220 and DeltatarO strains – OD600, teichoic acid synthesis inhibitors, primary screen (AID 463173)). Conditions: S. aureus RN4220 wild type/DeltatarO growth, OD600, 18 h, hits give low values, screened at 18.75 µg/mL (by protocol).

Row | Structure (SMILES) | survival
1 | CCCCC(c1nnnn1CCc1ccccc1)N1CCN(C2CCCC2)CC1 (configuration not stated) | inactive: 101%
2 | COCCCNc1nc2c(S(=O)(=O)c3ccccc3)nnn2c2ccc(Cl)cc12 | inactive: 92%
3 | O=C(NCc1cccs1)c1nn(-c2ccccc2Cl)nc1CO | inactive: 116%
4 | CC1=C(C(=O)Nc2ccccc2)C(c2ccccc2C)n2nc(SCC(=O)c3ccc(C)cc3)nc2N1 (configuration not stated) | inactive: 91%
5 | CCOC(=O)c1ccccc1NC(=O)N1CCN(Cc2cc(=O)n3nc(-c4ccccc4)sc3n2)CC1 | inactive: 84%
6 | COC(=O)c1c(-c2cccs2)csc1NC(=O)c1cccc(Cl)c1 | inactive: 109%
7 | COC(=O)c1c(-c2cccs2)csc1NC(=O)c1ccc(Br)cc1 | inactive: 68%
8 | Cc1cccc(NC(=O)CSc2nc(-c3cccs3)cc(C(F)(F)F)c2C#N)c1C | inactive: 94%
9 | O=C(NCCc1csc(-c2ccc(C(F)(F)F)cc2)n1)c1ccc(F)c(F)c1 | inactive: 72%
10 | O=C(Nc1ccccc1Cl)NC1(C(=O)N2CCCCC2)CCCCC1 | inactive: 110%
11 | CCOc1ccc(-c2cc(CCCC(=O)NCCc3ccc(Cl)cc3)no2)cc1 | inactive: 83%
12 | CCc1ccc(NC(=O)CCS(=O)(=O)c2cc3c(cc2Cl)NC(=O)CO3)cc1 | inactive: 83%
13 | CC(O)CNCc1ccc2c(c1)OCO2 (configuration not stated) | inactive: 90%
14 | CCN(c1cccc(C)c1)S(=O)(=O)c1ccc(-n2cccn2)cc1 | inactive: 69%
15 | Cc1ccc(C(=O)N2CCc3cc(CNC(=O)CSc4ccccc4)ccc32)cc1 | inactive: 81%
16 | Cc1ccc(-c2cc(C(=O)NCc3cnn(C)c3C)c3ccccc3n2)cc1C | inactive: 79%
17 | CCN(c1ccccc1)S(=O)(=O)c1cc(Br)cc2c1N(C(=O)C1CC1)CC2 | inactive: 82%
18 | Cc1cccc(N(C(=O)c2csnn2)C(C(=O)NC2CCCCC2)c2ccco2)c1 (configuration not stated) | inactive: 109%
19 | Cc1cccc(-c2c3c(=O)n(C)c(=O)n(C)c3c3c(C)nc4ccccc4n23)c1 | inactive: 133%
20 | N#Cc1ccc(S(=O)(=O)N2CCC(Oc3cccc(C(F)(F)F)c3)CC2)cc1 | inactive: 84%
21 | COc1cc(OC)c(OC)cc1CN1CCc2nc(Nc3ccc4c(c3)OCCO4)ncc2C1 | inactive: 89%
22 | CCCNC(=O)C1=CC(c2ccc3c(c2)OCO3)=NS(=O)(=O)N1C | inactive: 86%

Row | Structure (SMILES) | survival
23 | COc1ccc(CNC(=O)C(=O)Nc2c3c(nn2-c2ccccc2)CSC3)cc1 | inactive: 117%
24 | Cn1c(=O)c2c(nc(N3CCOCC3)n2Cc2cccc(Br)c2)n(C)c1=O | inactive: 73%
25 | Cc1ccccc1CNC(=O)Cc1ccc(NC(=O)N2CCCCc3ccccc32)cc1 | inactive: 81%
26 | COc1ccc(N2CCN(C(CNC(=O)C(=O)NCc3cccnc3)c3cccnc3)CC2)cc1 (configuration not stated) | inactive: 106%
27 | Cc1[nH]n2c(=O)cc(-c3ccc(Cl)cc3)nc2c1-c1ccccc1 | active: -17%
28 | Cc1c(C(=O)N2CCCCC2)c(S(=O)(=O)NCc2ccc(N(C)C)cc2)c(C)n1C | inactive: 128%
29 | Cc1nn2c(-c3ccco3)ccnc2c1-c1ccc(Br)cc1 | inactive: 70%
30 | CCOc1ccc(C(=O)c2cn(CC(=O)Nc3cccc(OC)c3)c3cc4c(cc3c2=O)OCCO4)cc1 | inactive: 147%
31 | COc1ccc(CNC(=O)c2ccc3nc(CCc4ccccc4)oc3c2)cc1 | active: -2%
32 | COc1ccccc1CNC(=O)C(C)n1ccc2cc(S(=O)(=O)N3CCCC3)ccc21 (configuration not stated) | inactive: 71%
33 | Cc1ccc(C2Nc3cc(C)c(C)cc3-n3c(-c4ccccc4)c4c(=O)n(C)c(=O)n(C)c4c32)o1 (configuration not stated) | inactive: 77%
34 | Cc1cccc(N2CCN(C(=O)C3CCN(C(=O)c4cc5sccc5n4C)CC3)CC2)c1C | inactive: 57%
35 | CCOc1ccc(NC(=O)C2CCN(c3nnc(C)c4c(C)n(-c5ccccc5)nc34)CC2)cc1 | inactive: 76%
36 | Cc1ccc(NC(=O)CSc2nc3c([nH]c4ccccc43)c(=O)n2-c2ccccc2)cc1Cl | inactive: 72%
37 | Cc1ccc(-c2[nH]c3c(c2-c2c(-n4cccc4)n(C)c(=O)[nH]c2=O)c(=O)[nH]c(=O)n3C)cc1 | inactive: 82%
38 | CCOC(=O)c1c(C)oc2nc(C)nc(N3CCN(c4ccccc4F)CC3)c12 | inactive: 72%
39 | Cc1ccc(F)cc1NC(=O)CCc1c(C)nn(-c2ccc(N3CCOCC3)nn2)c1C | inactive: 113%
40 | CC1Cn2c(C(=O)NCCc3ccc(Cl)cc3)cc3cccc(c32)S1 (configuration not stated) | inactive: 91%
41 | N#C/C(=C\c1ccc[nH]1)C(=O)N1CCc2ccccc2C1 | inactive: 109%
42 | Cc1ccc2[nH]cc(S(=O)(=O)c3ccc(C)c(C)c3)c(=O)c2c1 | inactive: 77%
43 | CSc1ccc(C2CC(=O)Oc3c2c(=O)n(C)c2ccccc32)cc1 (configuration not stated) | inactive: 69%
44 | Cc1c(C(=O)N2CCCC2)oc2c1-c1nn(CC(=O)NCc3ccccc3Br)cc1CC2 | inactive: 81%

Row | Structure (SMILES) | survival
45 | Cc1ccc(/C=C/c2onc(C)c2S(=O)(=O)N2CCC(C(=O)N3CCOc4ccc(C)cc43)CC2)cc1 | inactive: 124%
46 | Cc1nnc(N(C)C(=O)Cc2ccc3c(c2)OCO3)s1 | inactive: 109%
47 | COc1ccc(NC(=O)CCS(=O)(=O)c2nc(-c3ccc4c(c3)OCO4)cc(C(F)(F)F)n2)cc1 | inactive: 81%
48 | COc1ccc(C)cc1NC(=O)CCc1c(C)nn(-c2ccc(N3CCCCC3)nn2)c1C | inactive: 71%
49 | CC(c1ccccc1)n1cc(C(=O)NCCCN2CCCC2=O)nn1 (configuration not stated) | inactive: 116%
50 | CC1C(=O)CCNC1c1ccccc1 (configuration not stated) | inactive: 95%
51 | O=C(CN1C(=O)COc2ccc(S(=O)(=O)N3CCCCCC3)cc21)Nc1cccc(Cl)c1 | inactive: 53%
52 | COc1ccc(-c2cc(C(=O)Oc3ccc(C)cc3)c3cc(C)ccc3n2)cc1 | inactive: 22%
53 | CC1CCN(c2nn3c(=O)c(C(=O)NCCc4ccccc4)cnc3s2)CC1 | inactive: 80%
54 | Cc1cc(=O)n(C(C)C(=O)N2CCCc3ccccc32)c2c1c(C)nn2-c1ccccc1 (configuration not stated) | inactive: 115%
55 | CC(=O)N1CCc2c(sc3nc(SCC(C)C)n(-c4ccc(C)c(Cl)c4)c(=O)c23)C1 | inactive: 44%
56 | Cc1ccc(-c2nnc(Nc3ccc(OC(F)(F)Cl)cc3)c3ccccc23)cc1S(=O)(=O)NC(C)(C)CO | inactive: 81%
57 | Cc1nc2scc(C)n2c(=O)c1S(=O)(=O)Nc1ccc(N2CCN(S(C)(=O)=O)CC2)cc1 | inactive: 84%
58 | O=C(Nc1ccc(-c2nc3cc(NC(=O)c4ccc(F)cc4)ccc3o2)cc1)c1ccc(F)cc1 | inactive: 70%
59 | CCc1nn2c(=O)cc(COC(=O)c3ccc(NC(=O)CCc4ccccc4)cc3)nc2s1 | inactive: 78%
60 | O=C(Nc1cccnc1)c1ccccc1Oc1ccccc1 | inactive: 107%
61 | COc1cccc(C2(O)CCN(C(=O)C3CCC3)CC2)c1 | inactive: 99%
62 | O=C(COc1ccccc1)N(Cc1cccnc1)c1nc2c(F)cccc2s1 | inactive: 69%
63 | Nc1ccc(NC(=O)c2cccc(C(=O)Nc3ccc(N)cc3Cl)c2)c(Cl)c1 | inactive: 144%
64 | Cc1c(C(=O)NN=C2CCCCCC2)nnn1-c1nonc1N | inactive: 99%
65 | CCc1nc(SC)ncc1C(=O)N1CCN(c2cc(Cl)ccc2C)CC1 | inactive: 66%
66 | Cc1nn(C(C)C(=O)Nc2ccc(C(C)C)cc2)c(=O)c2c1sc1ccccc12 (configuration not stated) | inactive: 83%

Row | Structure (SMILES) | survival
67 | CCCN(CCC)CCCNC(=O)c1cnn(-c2ccc(F)cc2)c1-n1cccc1 | inactive: 118%
68 | COc1cc(-c2nc(SCC(=O)Nc3ccc(C)cc3)c(-c3ccc(F)cc3)[nH]2)cc(OC)c1OC | inactive: 106%
69 | COc1cc(/C=C(\C#N)c2nc3ccccc3[nH]2)ccc1OCc1ccc(F)cc1 | inactive: 75%
70 | CCc1ccccc1NC(=O)c1cc(S(=O)(=O)N2CCc3ccccc32)ccc1F | inactive: 76%
71 | Cc1nnc(SCC#N)n1C | inactive: 103%
72 | CCCn1c2ccccc2c2cnn(CC(=O)NCC3CCN(Cc4ccc(F)cc4)CC3)c(=O)c21 | inactive: 74%
73 | COc1ccccc1CNc1nc(-c2ccco2)nn1C(=O)c1cc(OC)c(OC)c(OC)c1 | inactive: 69%
74 | Cc1cccc(-c2nn3c(=O)cc(CN4CCN(C(=O)c5ccccc5Br)CC4)nc3s2)c1 | inactive: 143%
75 | C#CC(C)(CC)NC(=O)Cn1nnc(-c2ccc(OCc3ccccc3C)cc2)n1 (configuration not stated) | inactive: 143%
76 | COc1ccccc1N1CCN(C(=O)c2cnn(-c3cccc(Cl)c3)c2C2CCN(C(=O)OC(C)(C)C)CC2)CC1 | inactive: 83%
77 | Cc1ccccc1CNC(=O)C1=Cc2ccccc2OC1 | inactive: 77%
78 | CCOC(=O)c1c(C)[nH]c(CCC(=O)NCc2ccc(OC)c(OC)c2)c1C | inactive: 68%
79 | CCn1c2ccccc2c2nnc(N3CCN(c4cccc(Cl)c4)CC3)nc21 | inactive: 72%
80 | COc1ccc(S(=O)(=O)N2CCC(N3CCN(Cc4ccccc4)C(=O)C3=O)CC2)cc1 | inactive: 75%
81 | CCC(=O)OCCN1C(=O)c2ccccc2C1=O | inactive: 101%
82 | Cc1ccc(N2CCn3c2nc2c3c(=O)n(C/C=C/c3ccccc3)c(=O)n2C)cc1C | inactive: 76%
83 | CCc1ccc(NC(=O)CCc2c(C)nc3nc(-c4cc(OC)cc(OC)c4)nn3c2C)cc1 | inactive: 134%
84 | CSc1nn(CC(=O)Nc2ccccc2F)c(N)c1S(=O)(=O)c1ccccc1 | inactive: 90%
85 | COc1ccc(CNC(=O)Cc2c(C)c3cc4c(C)coc4cc3oc2=O)cc1 | inactive: 88%
86 | COc1ccc(-c2noc(CCCC(=O)Nc3cccc(Cl)c3C)n2)cc1 | inactive: 91%
87 | Cc1ccc(CN2CCSc3ccc(C(=O)NCc4ccc(OC(C)C)cc4)cc32)cc1 | inactive: 81%
